Laboratory results taken from ChEMBL document CHEMBL4888484, “Replenishing the malaria drug discovery pipeline: Screening and hit evaluation of the MMV Hit Generation Library 1 (HGL1) against asexual blood stage Plasmodium falciparum ,using a nano luciferase reporter read-out” (2022).
Among all 4,800 compounds or so, about 410 (8.5%) showed an effect of 50% or more. This is one part of the list.

System: Plasmodium falciparum
Experiment: Confirmatory screen in NF54 pLDH assay, in single point, at 2uM, 72h
Type: functional, Erythrocyte
Settings: timepoint 72 hour

SMILES	% Inhibition
N#Cc1ccc(NCCc2csc(N)n2)nc1	-4%
CN(Cc1ccc(F)c(F)c1)S(=O)(=O)C[C@H]1CCN(C(=O)OCc2ccccc2)C1	-1%
CCN1CCC[C@@H]1CNC(=O)c1[nH]nc2c1CCc1ccccc1-2	-3%
COCCN(CC1CN(Cc2cccs2)CC1c1cccc(F)c1)C(=O)C(C)C (configuration not stated)	-10%
CC(C)CN1C(=O)CC[C@@H](C(=O)NCCCOC(C)C)[C@@H]1c1cccnc1	-16%
O=C(Nc1ccc(Cl)cc1)c1cccc(N2C(=O)C3CCC(c4ccccc4)CC3C2=O)c1 (configuration not stated)	1%
O=C1NS(=O)(=O)c2cc(N3CCN(Cc4ccccc4)CC3)ccc21	8%
CCc1nnc2ccc(S(=O)(=O)N(CC#N)c3ccccc3)cn12	-16%
COc1ccccc1C1CC(=O)Nc2nc(N3CC(C)CC(C)C3)nc(O)c21 (configuration not stated)	-5%
Cc1cc(NC(=O)Cn2cc(F)ccc2=O)n(C)n1	4%
O=C(c1c(F)cccc1F)N1C[C@@H]2CCCN2c2ccc(C(F)(F)F)cc21	-14%
CCn1nccc1C(=O)N1CC[C@H](CC(=O)NCc2ccncc2)C1	6%
O=C(NCCc1cccs1)c1cnn2c(-c3ccc4c(c3)OCO4)ccnc12	-8%
N#Cc1ccc(N[C@H]2CCCN(Cc3ccc(F)cc3F)C2=O)cn1	-11%
Nc1nccnc1C(=O)NCc1ccc(Cn2ccnc2)cc1	3%
COc1ccc(NC(=O)Cn2c(=O)n(CCc3cccs3)c(=O)c3ccccc32)cc1Cl	11%
COc1cc(NC(=O)c2cccc3c(Br)cccc23)ccc1NC(=O)c1ccccc1Cl	6%
Cc1cccn(Cc2nnnn2C2CC2)c1=O	7%
Cc1ccc(-c2cc3ncc(S(=O)(=O)c4ccccc4)c(-c4cccs4)n3n2)cc1	-16%
CN1C(=O)[C@H](OC(=O)COc2ccccc2)N(c2cccc(Cl)c2)C1=O	-21%
COc1ccc(CCN2C(=O)COCC2=O)cc1OC	3%
FC(F)(F)c1nnc(NCc2cncs2)s1	-7%
Cc1cc(NC(=O)c2occc2-c2ccccc2)sn1	2%

SMILES	% Inhibition
FC(F)Oc1ccc(-c2c[n+](-c3cccc(C(F)(F)F)c3)c3n2CCCCC3)cc1	42%
Cc1ccc([C@@H]2CC(=O)Nc3nc(N4CCN(CCO)CC4)nc(O)c32)cc1	3%
Cc1cc(C(=O)NC(C)C)nc(N(C)C)n1	8%
COc1ccc(S(=O)(=O)N2CC[C@@H]3[C@@H](COCCN3Cc3ccccc3)C2)cc1	0%
O=C(NC(Cn1ccccc1=O)c1ccccc1)C1CCOC1 (configuration not stated)	7%
CC[C@@H](CCNS(=O)(=O)c1cn(C(F)F)nc1C)n1ccc(C(F)(F)F)n1	-9%
Cc1nnc(Cn2ncnc2-c2ccccc2Cl)o1	3%
Cc1noc(C(C)(C)NC(=O)Nc2c[nH]nc2-c2nccs2)n1	-3%
CC1(C)C2CCC13CS(=O)(=O)N=C3C2 (configuration not stated)	17%
O=c1[nH]c(=O)n(-c2ncnc3c2cnn3-c2ccccc2)cc1Cl	9%
COc1ccc2[nH]c3c(c2c1)CCN(C(=O)c1ccc(C)c(C)c1)[C@@H]3c1ccccc1OC	86%
Cn1c(-c2ccccc2)cn2cc(-c3ccc(F)cc3)nc12	-7%
CC[C@H]1Cn2c(C(=O)N3CCN(C(=O)c4ccco4)CC3)cc3c(Cl)ccc(c32)O1	-5%
Cc1ccc(S(=O)(=O)Nc2cc3nc4ccccc4nc3n2CCc2ccccc2)cc1	97%
CS(=O)(=O)C[C@H](NCc1nc2c(s1)CCC2)c1ccccc1	-7%
COc1cc(=O)[nH]cc1Br	-12%
Cc1cnc(N[C@@H](CN)C2CCCCC2)nc1	-12%
FC(F)Oc1cccc(-c2cc(C(F)(F)F)c3c(-c4ccc5c(c4)OCO5)noc3n2)c1	9%
CCO/N=C(\Nc1ccccc1)c1nonc1N	-13%
COc1ccc(CC(=O)NCc2nnc3n2CCC3)cc1	9%
C=CCCCN(C)C(=O)c1cc(S(N)(=O)=O)cc(Cl)c1F	8%
O=C(c1ccnn1C(F)F)N1N=CC[C@]1(O)C(F)(F)F	-3%
CCOc1ccc(Nc2c3ccccc3nc3ccccc23)cc1	96%

SMILES	% Inhibition
CN1CCC[C@H](C(=O)Nc2nc(C3CC3)cs2)C1	-2%
CC(=O)Nc1ccc(C)cc1S(=O)(=O)N1CC=C(c2c(C)n(Cc3ccccc3C)c3ccccc23)CC1	90%
CNC(=NCCCOc1cccc(OC)c1)NC	-6%
N#CCC(=O)Nc1nc(-c2ccc(Oc3ccccc3)cc2)cs1	-5%
CCCn1c(C)nnc1COC(=O)c1ncoc1C	0%
COC(=O)COc1nonc1-c1ccccc1	12%
Cc1ccc(C(=O)OCC(=O)Nc2ccc3c(c2)OCO3)cn1	1%
Cn1cc(CCNC(=O)C2=NN(c3ccccc3)[C@H](C(N)=O)C2)cn1	-9%
CS(=O)(=O)[C@H]1CCCN(c2nc3cc(F)ccc3o2)C1	-7%
O=C1NC2=Nc3ccccc3NC(c3ccccc3)=C2[C@H](c2cccc3ncccc23)N1	1%
CCOc1cc(C)ccc1S(=O)(=O)NC(C)C	0%
CCc1ccc(NCc2c(OCc3ccc(Br)cc3)ccc3ccccc23)cc1	-15%
Cn1c(CCNC(=O)CCc2cccnc2)nc2cc(Cl)ccc21	10%
CC(C)(CC(=O)Nc1ccc2oc(C3CC3)nc2c1)C(=O)O	3%
CC(=O)N1CCN(C(=O)CC2CC3CCC2C3)CC1 (configuration not stated)	-16%
Cc1ccc(S(=O)(=O)N2CCN(C(=O)N3CCOCC3)[C@@H]2C)cc1	-12%
Cc1ccc(NCc2ncccn2)cc1OCC1CCCCC1	5%
O=C(NC1CCN(Cc2ccccc2)CC1)c1cnn2c(-c3ccc4c(c3)OCO4)ccnc12	11%
Cc1nn(C)cc1[C@H](C)NC(=O)c1cc(-c2ccccc2)on1	9%
COc1cccc(C(N)=O)c1OCC(=O)NC(C)C	-9%
CCOc1cccc(CNC(=O)c2nn[nH]c2Nc2ccc(C)c(C)c2)c1	4%
